No constants are given. Whether binding was seen depends on the method and setting. Some results given as binding are weak or reduced against the parent protein; the word gives no strength. One block for each substance: values may come before it.
Columns and labels:
LRP2 CR89 (human) [1] = target: LRP2 CR89 (human) (UniProt P98164); test: solid-phase binding assay, CR protein coated on plate, anti-RAP detection
LRP2 CR89 V1047D (human) [2] = target: LRP2 CR89 V1047D (human) (UniProt P98164); test: condition: 100 nM (highest concentration in Figure 6); solid-phase assay on coated CR protein, single-site non-linear fit
[3] = target: LRP2 CR89 V1047D R1088D (human) (UniProt P98164); test: as above
LRP2 CR89 V1047D (human) [4] = target: LRP2 CR89 V1047D (human) (UniProt P98164); test: solid-phase assay on coated CR protein, anti-RAP detection, A450
[5] = target: LRP2 CR89 V1047D R1088D (human) (UniProt P98164); test: as above
LRP2 CR89 (human) [6] = target: LRP2 CR89 (human) (UniProt P98164); test: as above

Amino acid sequences for entries named in this document (tags omitted). A change or cut given only in a name is not applied to a line headed by its entry. Residues count along the entry.
UniProt P98164, residues 1025-1102: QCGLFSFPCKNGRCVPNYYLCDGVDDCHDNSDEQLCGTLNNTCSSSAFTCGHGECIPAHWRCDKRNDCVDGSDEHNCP
UniProt P30533: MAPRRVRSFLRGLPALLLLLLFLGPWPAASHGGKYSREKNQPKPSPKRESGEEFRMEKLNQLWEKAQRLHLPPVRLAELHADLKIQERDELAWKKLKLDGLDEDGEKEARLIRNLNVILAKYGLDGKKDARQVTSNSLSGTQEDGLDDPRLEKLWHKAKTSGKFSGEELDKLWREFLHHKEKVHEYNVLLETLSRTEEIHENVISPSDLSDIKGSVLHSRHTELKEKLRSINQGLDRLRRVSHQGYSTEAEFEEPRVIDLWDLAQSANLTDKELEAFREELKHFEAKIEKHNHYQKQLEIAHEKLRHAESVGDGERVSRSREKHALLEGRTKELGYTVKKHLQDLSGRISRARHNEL

binding (LRP2 CR89 (human) [1]): binds
Substance: MegaRAP1 d3 double revertant T213S, E270K (from UniProt P30533 235-353) (ligand)

binding (LRP2 CR89 V1047D (human) [2]): no binding
binding [3]: no binding
binding (LRP2 CR89 V1047D (human) [4]): no binding (tested: 100 nM)
binding [5]: no binding (tested: 100 nM)
Substance: RAP d3 (wild-type domain 3 of human RAP, amino acids 201-319 of mature RAP) (from UniProt P30533 235-353) (ligand)

binding (LRP2 CR89 (human) [6]): binds
Substance: RAP d3 forward mutant E251K, K256A, K270E (from UniProt P30533 235-353) (ligand)
